This is an account of results in patent publication US20220273678A1 (priority 2020, published 2022).

In the test the test system is SARS-CoV-2. Format: cell-based. The settings on record: methanesulfonate.

“Also recorded” adds a separate entry of the source.

On to `COC1=C(OC)C(=O)C(CCCCCCCCCC[P+](c2ccccc2)(c2ccccc2)c2ccccc2)=C(C)C1=O.CS(=O)(=O)[O-]` [Mito-MES, 10-(4,5-dimethoxy-2-methyl-3,6-dioxo-1,4-cyclohexadienyl) decyl triphenylphosphonium methanesulfonate], for which the “percent of SARS-CoV-2 infected Calu3 cells, flow cytometry” value was “attenuated the percent of SARS-CoV-2 infected Calu3 cells; also recorded: inhibits or reduces the percent of SARS-CoV-2 infected Calu3 cells”.
